Laboratory results reported in PubChem BioAssay AID588453 (National Center for Advancing Translational Sciences (NCATS), 2011).
Several values for one entry are separate records, joined by “and”; a condition that tells them apart may be missing. Equal values may be shown once. About 4,000 (1%) of roughly 390,000 compounds were called active. This list was built around the results that the source calls inconclusive (neither active nor inactive); the mix of calls is not that of the screen. Calls follow the shape of the dose curve; as a rule, active = well fitted inhibition curve with a large enough effect; inconclusive = small, poorly fitted or top-dose-only effect; inactive = no such curve, though single readings can be large or run the other way. Where the call is inconclusive, the potency comes from a doubtful curve fit.

What follows are molecules tested against Thioredoxin reductase 1, cytoplasmic (Rattus norvegicus) (UniProt O89049) (assay: qHTS Assay for Inhibitors of Mammalian Selenoprotein Thioredoxin Reductase 1 (TrxR1): qHTS). Conditions: recombinant rTrxR1, NADPH fluorescence consumption, selenite substrate; series mostly up to 114 µM; activity change, negative = inhibition: at the top concentration.
Procedure, shortened: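 Rat TrxR1 (90 nM in the dispensed reagent) was pre-reduced with 400 uM NADPH for 5 min at room temperature, then incubated with compound for 15 min. After 400 uM selenite was added, NADPH fluorescence (Ex 340/Em 450 nm) was followed for 8 min.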
% is scaled to controls: 0 for no effect and ±100 for the full control effect; potency is read from the fitted curve at half-maximal effect; tags tell the direction and shape of the fitted curve.
Also: nearly all actives have a fitted effect of over 65% in size.

UniProt O89049, sequence (O89049 whole entry, looked up): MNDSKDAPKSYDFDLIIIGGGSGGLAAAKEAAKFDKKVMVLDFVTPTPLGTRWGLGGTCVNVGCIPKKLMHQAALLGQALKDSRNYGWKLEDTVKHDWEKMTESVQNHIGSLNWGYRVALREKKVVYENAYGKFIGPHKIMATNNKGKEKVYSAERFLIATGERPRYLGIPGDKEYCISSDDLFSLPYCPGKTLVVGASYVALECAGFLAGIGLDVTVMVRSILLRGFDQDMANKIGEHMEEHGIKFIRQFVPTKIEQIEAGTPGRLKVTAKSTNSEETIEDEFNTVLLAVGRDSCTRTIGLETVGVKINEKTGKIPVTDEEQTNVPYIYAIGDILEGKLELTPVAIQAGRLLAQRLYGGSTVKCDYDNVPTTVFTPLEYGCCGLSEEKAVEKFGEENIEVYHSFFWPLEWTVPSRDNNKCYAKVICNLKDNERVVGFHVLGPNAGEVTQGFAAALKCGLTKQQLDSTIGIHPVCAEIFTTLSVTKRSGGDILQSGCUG

SMILES | activity change, negative = inhibition | Potency
O=C(Cn1c(=O)oc2ccccc21)NCc1ccccc1Cl | inactive: 24.1% [at 57.1 µM] | –
COc1ccc2c(c1)c(C(=O)CN1CCN(C(=O)c3ccco3)CC1)c(C)n2C | – | inconclusive: 25.1 µM [inhibitor, full curve]
COc1ccc(S(=O)(=O)NCCSCc2ccco2)cc1OC | – | inconclusive: 15.8 µM [inhibitor, full curve]
CCOc1cc(N2CCOCC2)c(OCC)cc1NC(=O)COC(=O)c1ccc(Cl)cc1N | – | inconclusive: 56.2 µM [inhibitor, partial curve, poor fit]
Cc1ccc(CN2CCN(Cc3ccc(O)cc3)CC2CCO)o1 (centres undefined) | – | inconclusive: 50.1 µM [inhibitor, partial curve, poor fit]
Cc1ccc(C(=O)NC(=S)Nc2ccc(N3CCN(C(=O)c4ccco4)CC3)cc2)cc1 | – | inconclusive: 11.2 µM [inhibitor, full curve]
CCn1c(Cl)c(C=O)s/c1=N\S(=O)(=O)c1ccccc1 | – | active: 1.41 µM
O=C(CN1C(=O)/C(=C/c2ccco2)SC1=S)NC1CCS(=O)(=O)C1 (centres undefined) | – | inconclusive: 44.7 µM [inhibitor, partial curve]
Cc1ccc2scc(N3CCN(c4ccccc4)CC3)c(=O)c2c1 | inactive: 6.85% [at 57.1 µM] | –
O=C(NC1CCCC1)C(c1ccncc1)N(Cc1cccs1)C(=O)c1csnn1 (centres undefined) | – | inconclusive: 22.4 µM [inhibitor, single point]
CCOCCCNC(=O)c1cc(Sc2ccc(F)cc2)nc2ccccc12 | inactive: 17.7% | –
N#CC1=C(N)C(C#N)(C#N)C(c2ccc[nH]2)C2CCCC=C12 (centres undefined) | – | active: 11.2 µM
CCOc1ccc(NC(=O)C(CC)n2nc(-c3ccc(C)c(C)c3)ccc2=O)cc1 (centres undefined) | – | inconclusive: 89.1 µM [inhibitor, single point]
N#CC1C(C#N)N2CCCN2C1c1ccc(Cl)cc1 (centres undefined) | – | inconclusive: 35.5 µM [inhibitor, single point]
CCOC(=O)c1c(C)[nH]c(C)c1S(=O)(=O)NCCN1CCN(c2cc(Cl)ccc2C)CC1 | – | inconclusive: 39.8 µM [inhibitor, single point]
CN(C)c1ccc(/C=N/NC(=O)C(O)c2ccc(Br)cc2)cc1 (centres undefined) | – | inconclusive: 39.8 µM [inhibitor, partial curve, poor fit]
Oc1ccc(C2CNCCc3c2cc(O)c(O)c3Cl)cc1 (centres undefined) | – | inconclusive: 16.8 µM [inhibitor, partial curve, poor fit] and inconclusive: 16.8 µM [inhibitor, partial curve]
CCN(CC)S(=O)(=O)c1ccc(C(=O)NC2CC(=O)N(c3ccc4c(c3)OCCO4)C2)cc1 (centres undefined) | inactive: 13.5% [at 57.1 µM] | –
COc1cc(/C=C/C(=O)OCC(=O)NCc2ccco2)ccc1O | – | active: 50.1 µM
Cc1cc(C)nc(-n2nc(C)c3c2NC(=O)CC3c2ccccc2OC(C)C)n1 (centres undefined) | inactive: -2.91% | –
COC(=O)C1=C(C)NC(C)=C(C(=O)OC)C1c1ccc(-c2cccc(Cl)c2Cl)o1 | – | inconclusive: 56.2 µM [inhibitor, partial curve, poor fit]
O=C(NCCCN1CCOCC1)c1ccc(-n2nc(C(F)(F)F)cc2-c2cccs2)cc1 | inactive: -0.371% [at 57.1 µM] | –
O=C(NCc1ccco1)C1CCCN(S(=O)(=O)Cc2ccccc2)C1 (centres undefined) | inactive: 9.04% | –

SMILES | activity change, negative = inhibition | Potency
COc1cc(C(=O)COC(=O)c2ccc([N+](=O)[O-])o2)cc(OC)c1OC | – | inconclusive: 63.1 µM [inhibitor, single point]
COc1ccc(Oc2coc3c(CN4CCOCC4)c(O)ccc3c2=O)cc1 | – | inconclusive: 89.1 µM [inhibitor, partial curve, poor fit]
Cc1oc(/N=C/c2ccc(F)cc2)c(C#N)c1C | – | inconclusive: 20 µM [inhibitor, full curve]
O=S1(=O)c2ccccc2N(Cc2ccccc2Cl)c2ccccc21 | inactive: 28.6% [at 57.1 µM] | –
O=c1oc2c3c4c(cc2c2c1CCC2)OCCN4CCC3 | – | inconclusive: 89.1 µM [inhibitor, single point]
COc1c(CC=C(C)C)cc(C2CC(=O)c3c(O)cc(O)cc3O2)cc1CC=C(C)C (centres undefined) | – | inconclusive: 89.1 µM [inhibitor, single point]
CCOc1ccccc1Oc1cn[nH]c1-c1ccc(OCC(=O)NN)cc1O | inactive: 14.8% [at 57.1 µM] | –
CCC(=O)c1ccc(OCCSc2ncccn2)cc1 | – | inconclusive: 31.6 µM [inhibitor, single point]
Cc1ccc(S(=O)(=O)N(C)C)cc1NC(=S)Nc1ccc2cn[nH]c2c1 | – | inconclusive: 39.8 µM [inhibitor, single point]
Cc1ccc(SCc2[nH]nc3c2C(c2ccco2)C(C#N)=C(N)O3)cc1 (centres undefined) | – | inconclusive: 44.7 µM [inhibitor, partial curve, poor fit]
Cc1ccc(NC(=O)N2CCC(=O)N2)cc1 | – | inconclusive: 25.1 µM [inhibitor, single point]
C/C=C/Cn1c(SC)nc2c1c(=O)[nH]c(=O)n2C | inactive: 9.65% [at 57.1 µM] | –
COc1ccc(Cn2nnnc2C(c2cc3ccc(OC)cc3[nH]c2=O)N2CCCCCC2)cc1 (centres undefined) | – | inconclusive: 20 µM [inhibitor, full curve]
CCc1ccc(S(=O)(=O)c2nnn3c2nc(NCc2cccs2)c2sccc23)cc1 | inactive: 58.2% | –
CC(C)S(=O)(=O)c1cnc(N2CCOCC2)nc1N | inactive: 14.3% | –
CCOc1ccc(N=Nc2c(N)[nH][nH]c2=O)cc1 | inactive: 0.907% [at 11.4 µM] | –
CCOC(=O)C1C(=O)C(C(=O)OCC)C(c2cccnc2)NC1c1cccnc1 (centres undefined) | – | active: 3.16 µM
CN1C/C(=C/c2ccsc2)C(=O)/C(=C/c2ccsc2)C1 | – | inconclusive: 39.8 µM [inhibitor, partial curve]
Cc1cccc(S(=O)Cc2ccc(C(=O)NC3CCN(Cc4ccccc4)CC3)o2)c1 (centres undefined) | – | inconclusive: 70.8 µM [inhibitor, partial curve]
Cn1cccc1CC(=O)N/N=C/C(Cl)=C/c1ccccc1 | – | inconclusive: 79.4 µM [inhibitor, partial curve, poor fit]
CCOC(=O)N1CCc2c(sc(NCc3ccc(OCC)cc3)c2C(=O)Nc2ccc(OC)cc2OC)C1 | – | inconclusive: 39.8 µM [inhibitor, single point]
[O-]/C(=C(\C(=S)NCc1ccco1)[n+]1ccccc1)c1ccccc1Br | inactive: -24.5% [at 57.1 µM] | –
Cc1c(Cl)cnc(NC(=O)COC(=O)[C@@H](NC(=O)c2ccco2)C(C)C)c1Cl | – | active: 11.2 µM

SMILES | activity change, negative = inhibition | Potency
CCc1cc2ccc(OC)cc2nc1SCC(=O)NNC(=O)c1ccco1 | – | inconclusive: 50.1 µM [inhibitor, partial curve]
CC(C)N(c1ccccc1)c1ccc(NC(=O)CCl)cc1 | – | inconclusive: 31.6 µM [inhibitor, partial curve, poor fit]
COc1ccc(-c2ccc(C(=O)O)c(=O)[nH]2)cc1 | – | inconclusive: 35.5 µM [inhibitor, partial curve, poor fit]
Cc1cnc(C(=O)Nc2ccccc2-c2ccc(C)o2)cn1 | – | inconclusive: 25.1 µM [inhibitor, single point]
CC1(C)CC(=O)/C(=C\c2cccc([N+](=O)[O-])c2)C(C)(C)N1 | – | inconclusive: 70.8 µM [inhibitor, single point]
COc1cccc(C2=CC(c3ccc(OC)c(OC)c3OC)n3nnnc3N2)c1 (centres undefined) | – | inconclusive: 39.8 µM [inhibitor, partial curve, poor fit]
CC1=NN(c2nc(N)nc(/C(C#N)=C/c3ccc([N+](=O)[O-])o3)n2)C(C)(C)C1 | – | inconclusive: 3.16 µM [inhibitor, single point]
COc1ccccc1CNc1cc(-c2ccccc2)nc2nncn12 | – | active: 35.5 µM
CS(=O)(=O)NCC(c1ccco1)N1CCN(c2ccccc2)CC1 (centres undefined) | inactive: 1.58% [at 57.1 µM] | –
CC(=O)Nc1nc2ccccc2[nH]1 | inactive: 14.6% | –
COc1ccc(-n2nc3ccccc3n2)cc1 | inactive: 0.481% | –
O=C(NNC(=S)Nc1ccc(Cl)cc1)c1ccccc1 | – | inconclusive: 14.1 µM [inhibitor, partial curve]
Cc1ccc(C)n1-c1nnc(N2CCC(C(=O)Nc3ccccc3Br)CC2)s1 | – | inconclusive: 50.1 µM [inhibitor, partial curve, poor fit]
CC1(C)Cc2c(sc3[nH]c(=S)[nH]c(=O)c23)CO1 | – | inconclusive: 56.2 µM [inhibitor, partial curve, poor fit]
CC(NC(=O)CCSc1nc(-c2ccco2)cc(C(F)(F)F)n1)c1ccccc1 (centres undefined) | – | inconclusive: 39.8 µM [inhibitor, partial curve]
O=C(Cc1cc(=O)oc2cc(O)ccc12)NCC1CCC(C(=O)O)CC1 (centres undefined) | – | inconclusive: 70.8 µM [inhibitor, single point]
Cn1ccnc1SCC(=O)c1cccc(Br)c1 | inactive: -19% [at 57.1 µM] | –
CCS(=O)(=O)N1N=C(c2ccc(NS(C)(=O)=O)cc2)CC1c1ccccc1 (centres undefined) | – | inconclusive: 100 µM [inhibitor, single point]
CCOC(=O)c1ccc(N2Cc3ccccc3C2)cc1O | – | inconclusive: 89.1 µM [inhibitor, single point]
Cc1ccccc1-c1nc(CS(=O)(=O)CC(=O)N2CCOCC2)c(C)o1 | – | inconclusive: 79.4 µM [inhibitor, single point]
COC(=O)/C(=C/c1ccco1)NC(=O)c1ccc(Br)o1 | – | inconclusive: 56.2 µM [inhibitor, partial curve, poor fit]
CC(Oc1ccc(Cl)cc1)C(=O)N(C)CC(=O)Nc1ccc(N2CCOCC2)cc1 (centres undefined) | – | inconclusive: 89.1 µM [inhibitor, single point]
O=C(CSc1nc(-c2ccco2)cc(C(F)(F)F)n1)N1CCc2ccccc2C1 | – | inconclusive: 31.6 µM [inhibitor, partial curve]
